Reference: patent US12583836B2 (Anaxis Pharma Pty Ltd, priority 2020, dated 2026)

Columns and labels:
MLKL (full length) = target: T1, MLKL (full length) (Homo sapiens, UniProt Q8NB16); assay: KINOMEscan binding assay, MLKL; conditions: equilibrium dissociation constant, class symbols
T1 construct: purchased DiscoverX (KINOMEscan service); host or cells: E. coli BL21-derived (T7 phage) or HEK293
T1 sequence (Q8NB16 1-471): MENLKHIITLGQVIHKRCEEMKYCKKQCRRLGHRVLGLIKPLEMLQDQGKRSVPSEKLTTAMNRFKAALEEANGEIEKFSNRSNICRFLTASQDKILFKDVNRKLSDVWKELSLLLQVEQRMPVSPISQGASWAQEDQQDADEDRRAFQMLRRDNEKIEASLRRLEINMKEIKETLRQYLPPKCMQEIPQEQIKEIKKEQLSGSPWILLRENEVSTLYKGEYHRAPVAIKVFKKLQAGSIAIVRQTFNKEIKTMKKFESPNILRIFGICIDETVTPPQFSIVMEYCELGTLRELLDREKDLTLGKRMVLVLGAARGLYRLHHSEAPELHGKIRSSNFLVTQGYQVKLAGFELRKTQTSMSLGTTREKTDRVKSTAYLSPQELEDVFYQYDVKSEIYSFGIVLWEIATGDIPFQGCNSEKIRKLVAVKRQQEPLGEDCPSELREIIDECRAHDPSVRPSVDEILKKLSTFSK
Description: The Hill Slope was set to −1.

RIP1 = target: T2, RIP1 (Homo sapiens, UniProt Q13546); assay: KINOMEscan binding assay, RIP1; conditions: equilibrium dissociation constant, class symbols
T2 construct: purchased DiscoverX (KINOMEscan service); host or cells: E. coli BL21-derived (T7 phage) or HEK293
T2 sequence (Q13546 1-671): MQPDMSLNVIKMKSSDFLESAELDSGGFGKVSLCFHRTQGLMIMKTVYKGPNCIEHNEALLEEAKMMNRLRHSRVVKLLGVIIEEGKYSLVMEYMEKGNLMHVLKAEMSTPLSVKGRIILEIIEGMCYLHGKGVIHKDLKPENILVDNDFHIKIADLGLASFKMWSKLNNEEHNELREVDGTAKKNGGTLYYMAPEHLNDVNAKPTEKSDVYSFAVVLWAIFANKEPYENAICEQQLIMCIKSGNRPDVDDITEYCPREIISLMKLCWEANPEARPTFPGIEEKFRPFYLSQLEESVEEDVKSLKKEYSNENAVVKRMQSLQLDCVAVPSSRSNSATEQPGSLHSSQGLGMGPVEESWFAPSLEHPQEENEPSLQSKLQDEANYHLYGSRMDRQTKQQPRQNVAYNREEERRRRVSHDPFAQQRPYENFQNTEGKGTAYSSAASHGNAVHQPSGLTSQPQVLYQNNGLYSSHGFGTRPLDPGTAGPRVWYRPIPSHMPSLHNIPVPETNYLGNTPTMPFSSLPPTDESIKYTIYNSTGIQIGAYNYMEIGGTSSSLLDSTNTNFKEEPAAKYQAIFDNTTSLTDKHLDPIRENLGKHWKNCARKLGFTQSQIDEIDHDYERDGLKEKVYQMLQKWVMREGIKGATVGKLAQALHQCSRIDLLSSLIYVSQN

- Kd (MLKL (full length)): < 0.01 µM
- Kd (RIP1): > 30 µM
SMILES: C[C@H](Oc1cc(-c2n[nH]c(Nc3cc4n(n3)CCOC4)c2C(N)=O)ccc1NS(=O)(=O)C(F)F)c1ccc(F)cc1 [Compound 308, (S)-3-(4-((difluoromethyl)sulfonamido)-3-(1-(4-fluorophenyl)ethoxy)phenyl)-5-((6,7-dihydro-4H-pyrazolo[5,1-c][1,4]oxazin-2-yl)amino)-1H-pyrazole-4-carboxamide]
